Our source for the inhibition values is PubChem BioAssay AID485344 (National Center for Advancing Translational Sciences (NCATS), 2010).

Each structure is given as a SMILES string. In all, about 340,000 compounds went through this assay and about 6,900 (2%) were called active. Rule as the data show it: active = inhibition above about 30%; inactive = below that, where a call was filed. Only a part is listed here, and it is no random draw. Where no call is shown, the source filed none.

Chain of UniProt P14416 (P14416 whole entry, looked up): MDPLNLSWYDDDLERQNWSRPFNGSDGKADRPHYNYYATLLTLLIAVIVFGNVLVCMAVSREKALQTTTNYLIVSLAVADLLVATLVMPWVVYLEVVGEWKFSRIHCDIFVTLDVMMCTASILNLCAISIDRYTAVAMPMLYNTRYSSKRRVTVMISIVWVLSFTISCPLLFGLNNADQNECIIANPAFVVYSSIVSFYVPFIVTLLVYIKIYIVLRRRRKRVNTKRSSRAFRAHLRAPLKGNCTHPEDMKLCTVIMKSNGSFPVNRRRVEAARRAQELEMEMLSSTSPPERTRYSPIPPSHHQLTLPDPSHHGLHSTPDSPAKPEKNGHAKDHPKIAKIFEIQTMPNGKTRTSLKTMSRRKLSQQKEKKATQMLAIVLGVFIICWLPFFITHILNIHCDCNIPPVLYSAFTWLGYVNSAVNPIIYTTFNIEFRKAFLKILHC

The assay addresses D(2) dopamine receptor (Homo sapiens) (UniProt P14416). Kind of assay: HTS Assay for Allosteric Antagonists of the Human D2 Dopamine Receptor: Primary Screen for Antagonists. Also: 0% is about no effect. To be noted: HEK293 TREx D2 cells, calcium flux, dopamine EC80; at 10 µM; stronger effect = higher value. Summed up:
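Tetracycline-induced HEK293 TREx cells expressing D2 receptor forced-coupled to calcium signalling, loaded with no-wash calcium dye. Compounds added and calcium flux read 180 s, then dopamine added at EC80 and read a further 180 s.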
(Calcium flux is commonly read through the fluorescence of an indicator in the cells.)
For the compound `CC(C)CNC(=O)CCSc1nc(-c2ccc3c(c2)OCO3)cc(C(F)(F)F)n1`, the inhibition was -18.5%. As for `CC(=O)N1c2ccc(S(=O)(=O)N3CCN(c4ccc(C)cc4C)CC3)cc2CC1C` (stereo unspecified), the inhibition came to 2.14%. With `O=C(Cn1ccn(-c2ccc(F)cc2)c(=O)c1=O)NCCc1ccccc1`, the inhibition is -20.3%. In the case of `CCOc1ccc(N(c2nc(-c3ccc(OC)c(OC)c3)no2)c2nc(-c3ccc(OC)c(OC)c3)no2)cc1`, the inhibition is 15.8%.

`COc1ccccc1N(CC(=O)NCCSCc1ccccc1Cl)S(C)(=O)=O`: the inhibition was 7.74%. The figure for `CCOC(=O)c1cnc2ccc(C)cc2c1Nc1ccc(OCc2ccccc2Cl)cc1` is -3.15%; for `O=C(c1cc(-c2ccc(Br)cc2)n[nH]1)N1CCN(S(=O)(=O)c2ccc(Br)cc2)CC1` it is -2.41%. For `CCC(=O)N1N=C(c2ccc(OC)cc2)CC1c1cn(-c2ccccc2)nc1-c1cccs1` (stereo unspecified), the inhibition was -10.2%. Consider `O=[N+]([O-])c1cc(Cl)ccc1NCCNc1ncc(C(F)(F)F)cc1Cl`, for which the inhibition is active: 36.2%.

For `CCOC(=O)c1c(SCC(=O)Nc2nc3ccc(C)cc3s2)nc(=O)[nH]c1C`, the inhibition was -28.3%. Take `Cc1ccc(Cl)cc1NC(=O)COC(=O)CC(C)(C)C`: the inhibition is active: 40.7%. With `Cc1cccc(CSc2cn(CC(=O)N3CCCCC3)c3ccccc23)c1`, the inhibition turned out to be 7.99%. The figure for `Cc1cc(C)c2sc(N(Cc3cccnc3)C(=O)CCS(=O)(=O)c3ccccc3)nc2c1` is -20.4%; for `O=C(Cn1cc(SCc2cccc(F)c2)c2ccccc21)N1CCOCC1` it is -1.53%. The value for `COc1ccc2oc(-c3ccc(C)c(NC(=O)c4cccnc4)c3)nc2c1` was 13.6%; that for `COc1cc(OC)c(NC(=O)CSc2nccn2C)cc1Cl` was 15.9%; that for `CC1CCN(c2oc(-c3cccs3)nc2S(=O)(=O)c2ccc(Cl)cc2)CC1` was 11.2%.

Consider `Cc1ccc(CNC(=O)c2ccc(-n3c(C)cc4c3CCCC4)cc2)cc1`, for which the inhibition is -5.78%. Consider `O=C(NC1CCN(Cc2ccccc2)CC1)c1ccccc1OCc1ccccc1Cl`, for which the inhibition is active: 84.5%. The value for `Cc1ccc(OCC(=O)Nc2ccc3nc(SCC(=O)N4CCCC4)sc3c2)cc1` was 1.21%.

Consider `CC(C)C(NS(=O)(=O)c1ccc2c(c1)oc(=O)n2C)C(=O)N1CCN(C2CCCCC2)CC1` (stereo unspecified), for which the inhibition is active: 30.6%.

Regarding `CNC(=O)c1ccc2c(c1)N=C(C)c1cc(C)ccc1S2`, the inhibition was -6.37%.

For the compound `O=C(CSc1nc2cc(C(=O)NC3CCCC3)ccc2c(=O)n1CC1CCCO1)c1ccc(F)cc1` (stereo unspecified), the inhibition was 1.72%.

For `CCCCn1c(COc2cccc(OC)c2)nc2ccccc21`, the inhibition was -0.0239%. The value for `COc1ccc(CCN2CC(C(=O)NCCc3ccc(C)cc3)CC2=O)cc1OC` (stereo unspecified) was -4.97%; that for `Cc1onc(-c2ccccc2)c1C(=O)OCC(=O)Nc1ccc(Cl)cc1` was active: 37.4%; that for `COc1cc(NC(=O)c2cc3c(=O)oc4ccc(C)cc4c3s2)cc(OC)c1OC` was -1.53%. With `CCn1cc(S(=O)(=O)c2ccccc2)c(=O)c2cc(C)ccc21`, the inhibition is -7.16%.

Take `CCOC(=O)c1[nH]c2ccccc2c1NC(=O)c1ccc(OC(C)C)cc1`: the inhibition is -1.15%. The figure for `COc1cc(OC)cc(C(=O)Nc2ccc(S(=O)(=O)Nc3cc(C)nc(C)n3)cc2)c1` is -23.5%; for `CCOC(=O)c1ccc(N2C(=O)c3n[nH]c(-c4cccs4)c3C2c2ccc(C)cc2)cc1` (stereo unspecified) it is -1.11%. The value for `CCCN(CCC)CCCNC(=O)Cn1ncc2c3ccccc3n(Cc3ccc(F)cc3)c2c1=O` was -0.115%; that for `CCCCOc1cccc(C(=O)Nc2cc3nn(-c4ccc(F)cc4)nc3cc2C)c1` was 8.46%; that for `CC(C)(C)c1ccc(-c2noc(CCC(=O)Nc3cccnc3)n2)cc1` was active: 35.8%.

Take `Cc1nc(C)c(-c2ccc(SCC(=O)Nc3ccccc3F)nn2)s1`: the inhibition worked out at 1.06%.

`COc1cccc(CNC(=O)CCNS(=O)(=O)c2cccc3nsnc23)c1`: the inhibition was -8.25%. As for `Cc1cc2ccccc2n1-c1ccc(C(=O)N2CCCCC2)s1`, the inhibition is -11.4%. The figure for `Cc1ccccc1NC(=O)c1sc2nc(-c3ccncc3)ccc2c1N` is -6.56%; for `Brc1ccc(-c2cc3c(N4CCN(c5ccccc5)CC4)nccn3n2)cc1` it is 20.8%.

For `O=C(CC1C(=O)N(c2ccc(F)cc2)C(=O)N1Cc1cccnc1)Nc1ccc(F)cc1` (stereo unspecified), the inhibition was -4.64%. In the case of `COc1ccc(CC(=O)Nc2c(C(=O)Nc3ccccc3F)oc3ccccc23)cc1`, the inhibition is -17%. The value for `COc1ccc(NC(=O)CC2C(=O)N(c3ccc(C)cc3)C(=O)N2CCc2ccccc2)cc1` (stereo unspecified) was 4.54%. On to `CC(=O)Nc1ccc(/C=N/NC(=O)CCN2CCN(c3ccccc3)CC2)cc1`, for which the inhibition was active: 51.4%.

For `CC(=O)Cn1nnc2sc(-c3ccccc3)cc2c1=O`, the inhibition is -15.4%. The value for `Cc1c(Cl)cccc1Nc1sc(C(=O)c2ccccc2)c(N)c1S(=O)(=O)c1ccccc1` was -18.6%. In the case of `COCCNC(=O)c1cc2n(n1)CCCN(Cc1ccc(C)cc1)C2=O`, the inhibition stood at 3.98%.

Take `CCOC(=O)N1CCc2c(sc3c2c(=O)n(Cc2ccccc2)c(=O)n3Cc2c(F)cccc2Cl)C1`: the inhibition amounted to 9.63%. The value for `CN(Cc1ccccc1)C(=O)c1cc2c(=O)n(C)c3ccccc3c2s1` was 15.4%; that for `O=C1CC(c2nc3ccccc3n2Cc2c(F)cccc2Cl)CN1c1cccc(C(F)(F)F)c1` (stereo unspecified) was -5.57%; that for `CSc1cccc(N2C(=O)N(Cc3ccc([N+](=O)[O-])cc3)c3ccccc3S2(=O)=O)c1` was -19.3%. Turning to `Cc1ccc(S(=O)(=O)N2CCCC(c3nc4c(nnn4Cc4ccc(OC(F)(F)F)cc4)c(=O)[nH]3)C2)cc1` (stereo unspecified), the inhibition came out at 3.59%. In the case of `CCOC(=O)c1ccc2c(c1)N(Cc1cccc([N+](=O)[O-])c1)C(=O)c1ccccc1S2`, the inhibition worked out at 13.2%.

For `O=C(Cn1c(=O)nc(-c2ccccc2)c2cc(Cl)ccc21)NCc1ccccc1`, the inhibition turned out to be 5.44%. As to `Cn1nc(-c2ccc(OCC(=O)Nc3ccccc3)cc2)c2ccccc2c1=O`, the inhibition was -3.18%. With `COc1ccc(-c2ccc(NS(=O)(=O)c3ccc(F)c(C(F)(F)F)c3)cc2)nn1`, the inhibition is -7.17%. The value for `Cc1ccc(CN2CCCn3nc(C(=O)NCCN(C)C)cc3C2=O)cc1` was 3.19%; that for `COC(=O)c1c(NC(=O)CCCOc2ccc(C)cc2)sc2c1C(C(=O)OC)CC2` (stereo unspecified) was -12.1%; that for `CCc1cccc(CC)c1NC(=O)c1cc(S(=O)(=O)N2CCc3ccccc32)cn1C` was -21.3%. Regarding `Cc1ccc(C)c(OCCSc2nc3ccccc3n2CC(=O)N2CCOCC2)c1`, the inhibition is 4.96%. Regarding `CCOC(=O)c1c(C)[nH]c(C)c1S(=O)(=O)N1CCC(C(=O)NCc2ccccc2)CC1`, the inhibition came to 7.01%. The figure for `COc1ccc(NC(=O)Cc2coc3cc(C)cc(C)c23)c(OC)c1` is 4.91%.

In general, inhibition refers to the drop in the measured response relative to a control, in per cent.
